# Some of the results follow.
# B1: Cohesin-hDCIR (Homo sapiens) (protein)
# chain: LDDLDAVRIKVDTVNAKPGDTVRIPVRFSGIPSKGIANCDFVYSYDPNVLEIIEIEPGDIIVDPNPDKSFDTAVYPDRKIIVFLFAEDSGTGAYAITKDGVFATIVAKVKEGAPNGLSVIKFVEVGGFANNDLVEQKTQFFDGGANVGDTTEPATPTTPVTTPTTTDDLDAASQKYSQLLEKKTTKELVHTTLECVKKNMPVEETAWSCCPKNWKSFSSNCYFISTESASWQDSEKDCARMEAHLLVINTQEEQDFIFQNLQEESAYFVGLSDPEGQRHWQWVDQTPYNESSTFWHPREPSDPNERCVVLNFRKSPKRWGWNDVNCLGPQRSVCEMMKIHLHHHHHH
# Columns and labels:
# Test in all cases: glycan array binding signal (z-score within array); higher = stronger binding
# Conditions in all cases: glycan notation: IUPAC condensed, linker removed
# [1] = target: Gal(a1-3)Gal(b1-4)GlcNAc(b1-2)Man
# Summary of the method: (§1)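 The binding signal is a Z-score computed within each array and averaged over linkers. Arrays of the same protein sequence at different concentrations or buffers were also averaged together. Data originate from 3228 arrays in the Consortium for Functional Glycomics database, kept only where the protein sequence was available.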
# [2] = target: Gal(a1-3)Gal(b1-4)GlcNAc(b1-2)Man(a1-3)[Gal(a1-3)Gal(b1-4)GlcNAc(b1-2)Man(a1-6)]Man(b1-4)GlcNAc(b1-4)GlcNAc
# Summary of the method: as §1
# [3] = target: Gal(a1-3)Gal(b1-4)GlcNAc(b1-3)GalNAc
# Summary of the method: as §1
# [4] = target: Gal(a1-3)Gal(b1-4)GlcNAc(b1-6)GalNAc
# Summary of the method: as §1
# [5] = target: Gal(a1-3)Gal(b1-4)[Fuc(a1-3)]GlcNAc
# Summary of the method: as §1
# [6] = target: Gal(a1-3)Gal(b1-4)[Fuc(a1-3)]GlcNAc(b1-2)Man(a1-3)[Gal(a1-3)Gal(b1-4)[Fuc(a1-3)]GlcNAc(b1-2)Man(a1-6)]Man(b1-4)GlcNAc(b1-4)GlcNAc
# Summary of the method: as §1
# Gal(a1-3)GalNAc = target: Gal(a1-3)GalNAc
# Summary of the method: as §1
# [7] = target: Gal(a1-3)[Gal(a1-4)]Gal(b1-4)GlcNAc
# Summary of the method: as §1
# [8] = target: Gal(a1-4)Gal(b1-3)GlcNAc(b1-2)Man(a1-3)[Gal(a1-4)Gal(b1-3)GlcNAc(b1-2)Man(a1-6)]Man(b1-4)GlcNAc(b1-4)GlcNAc
# Summary of the method: as §1
# Gal(a1-4)Gal(b1-4)Glc = target: Gal(a1-4)Gal(b1-4)Glc
# Summary of the method: as §1
# Gal(a1-4)Gal(b1-4)GlcNAc = target: Gal(a1-4)Gal(b1-4)GlcNAc
# Summary of the method: as §1
# [9] = target: Gal(a1-4)Gal(b1-4)GlcNAc(b1-2)Man(a1-3)[Gal(a1-4)Gal(b1-4)GlcNAc(b1-2)Man(a1-6)]Man(b1-4)GlcNAc(b1-4)GlcNAc
# Summary of the method: as §1
# [10] = target: Gal(a1-4)Gal(b1-4)GlcNAc(b1-3)Gal(b1-4)Glc
# Summary of the method: as §1
# Gal(a1-4)GlcNAc = target: Gal(a1-4)GlcNAc
# Summary of the method: as §1
# Gal(a1-6)Glc = target: Gal(a1-6)Glc
# Summary of the method: as §1
# Gal(b1-2)Gal = target: Gal(b1-2)Gal
# Summary of the method: as §1
# Gal(b1-3)Gal = target: Gal(b1-3)Gal
# Summary of the method: as §1
# Gal(b1-3)Gal(b1-4)GlcNAc = target: Gal(b1-3)Gal(b1-4)GlcNAc
# Summary of the method: as §1
# Gal(b1-3)GalNAc = target: Gal(b1-3)GalNAc
# Summary of the method: as §1
# [11] = target: Gal(b1-3)GalNAc(a1-3)[Fuc(a1-2)]Gal(b1-4)Glc
# Summary of the method: as §1
# [12] = target: Gal(b1-3)GalNAc(a1-3)[Fuc(a1-2)]Gal(b1-4)GlcNAc
# Summary of the method: as §1
# Gal(b1-3)GalNAc(b1-3)Gal = target: Gal(b1-3)GalNAc(b1-3)Gal
# Summary of the method: as §1
# [13] = target: Gal(b1-3)GalNAc(b1-3)Gal(a1-4)Gal(b1-4)Glc
# Summary of the method: as §1
# [14] = target: Gal(b1-3)GalNAc(b1-4)Gal(b1-4)Glc
# Summary of the method: as §1
# [15] = target: Gal(b1-3)GalNAc(b1-4)[Neu5Ac(a2-3)]Gal(b1-4)Glc
# Summary of the method: as §1
# Gal(b1-3)GlcNAc = target: Gal(b1-3)GlcNAc
# Summary of the method: as §1
# [16] = target: Gal(b1-3)GlcNAc(a1-3)Gal(b1-4)GlcNAc
# Summary of the method: as §1
# [17] = target: Gal(b1-3)GlcNAc(a1-6)Gal(b1-4)GlcNAc
# Summary of the method: as §1
# Gal(b1-3)GlcNAc(b1-2)Man = target: Gal(b1-3)GlcNAc(b1-2)Man
# Summary of the method: as §1
# [18] = target: Gal(b1-3)GlcNAc(b1-2)Man(a1-3)[Gal(b1-3)GlcNAc(b1-2)Man(a1-6)]Man(b1-4)GlcNAc(b1-4)GlcNAc
# Summary of the method: as §1
# [19] = target: Gal(b1-3)GlcNAc(b1-2)Man(a1-3)[Gal(b1-3)GlcNAc(b1-2)Man(a1-6)]Man(b1-4)GlcNAc(b1-4)[Fuc(a1-6)]GlcNAc
# Summary of the method: as §1
# [20] = target: Gal(b1-3)GlcNAc(b1-2)Man(a1-3)[GlcNAc(b1-4)][Gal(b1-3)GlcNAc(b1-2)Man(a1-6)]Man(b1-4)GlcNAc(b1-4)GlcNAc
# Summary of the method: as §1
# [21] = target: Gal(b1-3)GlcNAc(b1-2)[Gal(b1-3)GlcNAc(b1-6)]Man(a1-6)[Gal(b1-3)GlcNAc(b1-2)Man(a1-3)]Man(b1-4)GlcNAc(b1-4)GlcNAc
# Summary of the method: as §1
# [22] = target: Gal(b1-3)GlcNAc(b1-3)Gal(b1-3)GlcNAc
# Summary of the method: as §1
# [23] = target: Gal(b1-3)GlcNAc(b1-3)Gal(b1-4)Glc
# Summary of the method: as §1
# [24] = target: Gal(b1-3)GlcNAc(b1-3)Gal(b1-4)GlcNAc
# Summary of the method: as §1
# [25] = target: Gal(b1-3)GlcNAc(b1-3)Gal(b1-4)GlcNAc(b1-2)Man(a1-3)[Gal(b1-3)GlcNAc(b1-3)Gal(b1-4)GlcNAc(b1-2)Man(a1-6)]Man(b1-4)GlcNAc(b1-4)GlcNAc
# Summary of the method: as §1
# [26] = target: Gal(b1-3)GlcNAc(b1-3)Gal(b1-4)GlcNAc(b1-2)[Gal(b1-3)GlcNAc(b1-3)Gal(b1-4)GlcNAc(b1-6)]Man(a1-6)[Gal(b1-3)GlcNAc(b1-3)Gal(b1-4)GlcNAc(b1-2)Man(a1-3)]Man(b1-4)GlcNAc(b1-4)[Fuc(a1-6)]GlcNAc
# Summary of the method: as §1
# [27] = target: Gal(b1-3)GlcNAc(b1-3)Gal(b1-4)GlcNAc(b1-3)Gal(b1-4)GlcNAc(b1-2)[Gal(b1-3)GlcNAc(b1-3)Gal(b1-4)GlcNAc(b1-3)Gal(b1-4)GlcNAc(b1-6)]Man(a1-6)[Gal(b1-3)GlcNAc(b1-3)Gal(b1-4)GlcNAc(b1-3)Gal(b1-4)GlcNAc(b1-2)Man(a1-3)]Man(b1-4)GlcNAc(b1-4)[Fuc(a1-6)]GlcNAc
# Summary of the method: as §1
# [28] = target: Gal(b1-3)GlcNAc(b1-3)Gal(b1-4)GlcNAc(b1-6)[Gal(b1-3)GlcNAc(b1-3)]Gal(b1-4)Glc
# Summary of the method: as §1
# [29] = target: Gal(b1-3)GlcNAc(b1-3)Gal(b1-4)[Fuc(a1-3)]GlcNAc
# Summary of the method: as §1
# [30] = target: Gal(b1-3)GlcNAc(b1-3)Gal(b1-4)[Fuc(a1-3)]GlcNAc(b1-6)[Gal(b1-3)GlcNAc(b1-3)]Gal(b1-4)Glc
# Summary of the method: as §1
# [31] = target: Gal(b1-3)GlcNAc(b1-3)GalNAc
# Summary of the method: as §1
# [32] = target: Gal(b1-3)GlcNAc(b1-6)Gal(b1-4)GlcNAc
# Summary of the method: as §1
# [33] = target: Gal(b1-3)GlcNAc(b1-6)GalNAc
# Summary of the method: as §1
binder,measurement,setting,value
B1,glycan array binding signal (z-score),[1],0.022
same,glycan array binding signal (z-score),[2],0.737
same,glycan array binding signal (z-score),[3],0.487
same,glycan array binding signal (z-score),[4],5.08
same,glycan array binding signal (z-score),[5],-0.481
same,glycan array binding signal (z-score),[6],0.016
same,glycan array binding signal (z-score),Gal(a1-3)GalNAc,-0.529
same,glycan array binding signal (z-score),[7],-0.584
same,glycan array binding signal (z-score),[8],1.44
same,glycan array binding signal (z-score),Gal(a1-4)Gal(b1-4)Glc,-0.021
same,glycan array binding signal (z-score),Gal(a1-4)Gal(b1-4)GlcNAc,-0.12
same,glycan array binding signal (z-score),[9],-0.225
same,glycan array binding signal (z-score),[10],-0.358
same,glycan array binding signal (z-score),Gal(a1-4)GlcNAc,-0.042
same,glycan array binding signal (z-score),Gal(a1-6)Glc,-0.425
same,glycan array binding signal (z-score),Gal(b1-2)Gal,1.61
same,glycan array binding signal (z-score),Gal(b1-3)Gal,-0.617
same,glycan array binding signal (z-score),Gal(b1-3)Gal(b1-4)GlcNAc,-0.471
same,glycan array binding signal (z-score),Gal(b1-3)GalNAc,-0.564
same,glycan array binding signal (z-score),[11],-0.417
same,glycan array binding signal (z-score),[12],-0.285
same,glycan array binding signal (z-score),Gal(b1-3)GalNAc(b1-3)Gal,0.283
same,glycan array binding signal (z-score),[13],-0.002
same,glycan array binding signal (z-score),[14],-0.444
same,glycan array binding signal (z-score),[15],-0.315
same,glycan array binding signal (z-score),Gal(b1-3)GlcNAc,-0.094
same,glycan array binding signal (z-score),[16],-0.6
same,glycan array binding signal (z-score),[17],0.327
same,glycan array binding signal (z-score),Gal(b1-3)GlcNAc(b1-2)Man,-0.472
same,glycan array binding signal (z-score),[18],-0.055
same,glycan array binding signal (z-score),[19],-0.088
same,glycan array binding signal (z-score),[20],0.109
same,glycan array binding signal (z-score),[21],-0.003
same,glycan array binding signal (z-score),[22],0.078
same,glycan array binding signal (z-score),[23],-0.668
same,glycan array binding signal (z-score),[24],-0.518
same,glycan array binding signal (z-score),[25],-0.035
same,glycan array binding signal (z-score),[26],-0.519
same,glycan array binding signal (z-score),[27],-0.252
same,glycan array binding signal (z-score),[28],-0.561
same,glycan array binding signal (z-score),[29],-0.243
same,glycan array binding signal (z-score),[30],-0.655
same,glycan array binding signal (z-score),[31],-0.648
same,glycan array binding signal (z-score),[32],0.159
same,glycan array binding signal (z-score),[33],1.36
